# PubChem BioAssay AID624417 (National Center for Advancing Translational Sciences (NCATS), 2012)
# Hit rate of the full screen: of about 410,000 compounds, about 6,400 (1.6%) were called active. This list was built around the results that the source calls inconclusive (neither active nor inactive); the mix of calls is not that of the screen. The call rests on the fitted dose curve; in most records, active means well fitted inhibition curve with a large enough effect; inconclusive means small, poorly fitted or top-dose-only effect; inactive means no such curve, though single readings can be large or run the other way. Potencies of inconclusive entries are left out as doubtful fits.
# Biological target: Glucagon-like peptide 1 receptor (Homo sapiens) (UniProt P43220)
# UniProt P43220, sequence (P43220 whole entry, looked up): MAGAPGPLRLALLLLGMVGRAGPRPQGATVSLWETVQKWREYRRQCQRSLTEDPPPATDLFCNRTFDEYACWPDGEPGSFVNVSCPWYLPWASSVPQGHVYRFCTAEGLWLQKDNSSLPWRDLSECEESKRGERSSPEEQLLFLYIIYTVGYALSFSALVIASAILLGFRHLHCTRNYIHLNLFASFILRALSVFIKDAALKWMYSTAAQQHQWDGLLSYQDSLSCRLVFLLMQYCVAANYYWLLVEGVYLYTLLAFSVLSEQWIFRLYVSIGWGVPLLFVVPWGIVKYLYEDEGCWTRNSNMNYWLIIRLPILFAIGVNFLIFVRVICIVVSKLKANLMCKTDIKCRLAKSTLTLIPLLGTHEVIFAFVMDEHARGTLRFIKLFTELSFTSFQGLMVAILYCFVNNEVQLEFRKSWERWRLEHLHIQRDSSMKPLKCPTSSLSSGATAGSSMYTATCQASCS
# Assay: qHTS of GLP-1 Receptor Inverse Agonists (Inhibition Mode); further: nearly all actives have a fitted effect of over 55% in size
# Conditions: HEK293 GLP-1R CRE-luciferase, luminescence, 24 h, GLP-1R form is constitutively active; activity change, negative = inhibition: at 38.3 µM (top of the series) unless noted
# How it was run: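 Readout was luciferase luminescence, measured 12 min after detection reagent at room temperature. Beforehand, GLP-1R reporter HEK293 cells had sat 12 h, then received compounds for 24 hr at 37 deg C.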
# On the % scale 0 is the no-effect control and ±100 the full control effect; potency means the concentration at half of the fitted maximal effect; tags describe the fitted curve by direction and shape.
SMILES,Potency,"activity change, negative = inhibition"
COc1ccc(C(=S)N2CCN(c3ccccc3C)CC2)cc1,"inconclusive [inhibitor, partial curve, poor fit]",
Cc1cccc(CCNc2ncnc3onc(-c4ccc(Cl)cc4)c23)c1,,inactive: -2.92%
Cc1cccc2sc(NNC(=O)c3cc(=O)c4ccccc4o3)nc12,"inconclusive [inhibitor, single point]",
COc1ccc(OC)c(S(=O)(=O)N2CCN(C34CC5CC(CC(C5)C3)C4)CC2)c1,"inconclusive [inhibitor, partial curve, poor fit]",
CCOC(=O)C1C(=O)CC(C)(O)C(C(=O)OCC)C1c1ccc(OCC)cc1 (stereo unspecified),"inconclusive [inhibitor, full curve, poor fit]",
COC(=O)c1ccc(NC(=O)CN(CCc2ccccc2)S(=O)(=O)c2ccc(OC)cc2)cc1,"inconclusive [inhibitor, partial curve, poor fit]",
S=C(NCCc1ccccc1)N1CCn2cccc2C1c1cccnc1 (stereo unspecified),"inconclusive [inhibitor, partial curve]",
CCc1ccc2oc(C(=O)Nc3c(C)n(C)n(-c4ccccc4)c3=O)cc(=O)c2c1,,inactive: 3%
O=C(CN1CCN(c2nc(-c3ccccc3)cs2)CC1)NCc1ccc2c(c1)OCO2,"inconclusive [inhibitor, single point]",
CCCC(=O)n1nc(NCc2ccc(OC)cc2)nc1NCc1ccc(OC)cc1,"inconclusive [inhibitor, partial curve, poor fit]",
CCOC(=O)N1CCN(c2ccc(C(=O)c3ccccc3)cc2F)CC1,"inconclusive [inhibitor, single point]",
CCOC(=O)N1CCN(C(=O)C[C@@H]2C[C@@]3(C(=O)OCC)CCCC=C3N(Cc3ccc(Cl)cc3Cl)C2=O)CC1,"inconclusive [inhibitor, single point]",
CCc1ccc(OCC(=O)NC(NC(=S)Nc2ccccc2)C(Cl)(Cl)Cl)cc1 (stereo unspecified),active: 3.98 µM,
COc1cc(/C=C2\SC(=Nc3ccccc3)NC2=O)cc(Cl)c1O,,inactive: 74.7%
CCCCC(=O)NC(NC(=S)N1CCCCCC1)C(Cl)(Cl)Cl (stereo unspecified),"inconclusive [inhibitor, partial curve]",
CC(C)c1ccc(NC(=O)c2ccc3c(c2)CCN3S(C)(=O)=O)cc1,"inconclusive [inhibitor, full curve]",
C[C@]1(CO)CCC[C@@]2(C)C1CC[C@@H](CO)[C@@H]2CCc1ccoc1 (stereo partly specified),"inconclusive [inhibitor, single point]",
Cc1nc(NCc2ccco2)c2oc3ccccc3c2n1,"inconclusive [inhibitor, single point]",
CCOC(=O)N1CCc2c(sc3ncn(C)c(=O)c23)C1,,inactive: 26.8%
O=C(c1ccccc1Oc1ccc(C(F)(F)F)cc1[N+](=O)[O-])N1CCOCC1,,inactive: -2.91%
CC(=O)SC1CC2=CC(=O)CCC2(C)C2CCC3(C)C(CCC34CCC(=O)O4)C12 (stereo unspecified),"inconclusive [inhibitor, partial curve, poor fit]",

SMILES,Potency,"activity change, negative = inhibition"
Cc1cccc(CN2CCC(Oc3ccc(C(=O)N4CCCCC4)cc3)CC2)c1,"inconclusive [inhibitor, partial curve, poor fit]",
O=C(NC12CC3CC(CC(C3)C1)C2)N1CCN(S(=O)(=O)c2ccc(Cl)cc2)CC1,"inconclusive [inhibitor, partial curve, poor fit]",
Cc1ccc(NC(=S)NC(=O)C2CCCC2)cc1C,"inconclusive [inhibitor, partial curve, poor fit]",
Fc1ccc2c(c1)C(c1ccc(N3CCOCC3)cc1)=NNC(c1cccs1)=N2,"inconclusive [inhibitor, single point]",
COC(=O)[C@]12CCCCC=C1N(CCC1=CCCCC1)C(=O)[C@H](CC(=O)NCc1ccc(OC)c(OC)c1)C2,"inconclusive [inhibitor, single point]",
Cc1ccc(Nc2ncc(C(=O)N3CCN(c4ccc(F)cc4)CC3)c3ccccc23)cc1Cl,active: 2.82 µM,
CCCCCC(=O)Nc1ccccc1N1CCOCC1,,inactive: 7.43%
CN(C)CCCNS(=O)(=O)c1ccc(NC2CCCCCC2)c([N+](=O)[O-])c1,"inconclusive [inhibitor, full curve, poor fit]",
O=C(Nc1cccc2nsnc12)c1ccc(-c2cccc(Cl)c2)o1,,inactive: -0.814%
Cc1ccsc1CN(C(=O)c1oc2ccc(F)cc2c1C)C1CCS(=O)(=O)C1 (stereo unspecified),"inconclusive [inhibitor, single point]",
N/C(=N\N=C\c1cccc(O)c1)c1nonc1N,"inconclusive [inhibitor, single point]",
CCC(C)[C@H]1COCCS(=O)(=O)N1Cc1ccc(Br)cc1 (stereo partly specified),"inconclusive [inhibitor, partial curve, poor fit]",
CCOC(=O)C1=C(CNCc2ccc(C)cc2)NC(=O)NC1c1cc(C)ccc1C (stereo unspecified),"inconclusive [inhibitor, single point]",
O=C(Cn1nc(-c2ccccc2)c2ccccc2c1=O)Nc1ccc2c(c1)nc1n2CCOC1,"inconclusive [inhibitor, single point]",
CN(C)S(=O)(=O)c1ccc(C(=O)N2CCOCC2)cc1,,inactive: -11.2%
CC(C)NC(=O)c1onc(CSc2ccccc2F)c1C(=O)O,,inactive: -3.31%
N#CCC(=O)N/N=C/c1cn(Cc2ccc3ccccc3c2)c2ccccc12,"inconclusive [inhibitor, partial curve, poor fit]",
COc1ccccc1C(OC(=O)c1ccco1)C(=O)NCc1ccc(F)cc1 (stereo unspecified),"inconclusive [inhibitor, single point]",
Cc1csc(N/N=C/c2ccccc2F)n1,,inactive: 11.8%
CN1/C(=C\C(=O)COC(=O)CN2C(=O)C3CC=CCC3C2=O)C(C)(C)c2ccccc21 (stereo unspecified),"inconclusive [inhibitor, single point]",
